Measured values from a collection of fitness landscapes (doi:10.1126/science.1257360).
Some of the results follow.

B1: PhoQ; a variant is named by its letters at X, in order, P23837 (parent)
chain: MKKLLRLFFPLSLRVRFLLATAAVVLVLSLAYGMVALIGYSVSFDKTTFRLLRGESNLFYTLAKWENNKLHVELPENIDKQSPTMTLIYDENGQLLWAQRDVPWLMKMIQPDWLKSNGFHEIEADVNDTSLLLSGDHSIQQQLQEVREDDDDAEMTHSVAVNVYPATSRMPKLTIVVVDTIPVELKSSYMVWSWFIYVLSANLLLVIPLLWVAAWWSLRPIEALAKEVRELEEHNRELLNPATTRELTSLVRNLNRLLKSERERYDKYRTTLTDLTHSLKTPLXXLQXXLRSLRSEKMSVSDAEPVMLEQISRISQQIGYYLHRASMRGGTLLSRELHPVAPLLDNLTSALNKVYQRKGVNISLDISPEISFVGEQNDFVEVMGNVLDNACKYCLEFVEISARQTDEHLYIVVEDDGPGIPLSKREVIFDRGQRVDTLRPGQGVGLAVAREITEQYEGKIVAGESMLGGARMEVIFGRQHSAPKDE

Variants of: B1
Assay: enrichment ratio after two sorts for PhoP signalling (ratio (wild type AVST 3.29)); higher = more functional
Details: with PhoP (E. coli)

| Variant | enrichment ratio |
| --- | --- |
| PRGQ | ≤ 0.25 |
| GGCY | 16.1 |
| SYSA | ≤ 0.25 |
| TIYP | 2.52 |
| IHDI | ≤ 0.25 |
| TNTD | ≤ 0.25 |
| AGRA | ≤ 0.25 |
| VWQV | ≤ 0.25 |
| SLNM | ≤ 0.25 |
| SQIG | 9.99 |
| VGFI | 0.424 |
| DAAS | ≤ 0.25 |
| TKGD | ≤ 0.25 |
| IHIT | ≤ 0.25 |
| GNER | ≤ 0.25 |
| TFKW | ≤ 0.25 |
| IIKT | ≤ 0.25 |
| HPWS | ≤ 0.25 |
| LALW | ≤ 0.25 |
| PEAE | ≤ 0.25 |
| DLMM | ≤ 0.25 |
| DNDT | ≤ 0.25 |
| MCWV | 2.25 |
| KRCH | ≤ 0.25 |

| Variant | enrichment ratio |
| --- | --- |
| TQRE | ≤ 0.25 |
| KVEY | ≤ 0.25 |
| LRDM | ≤ 0.25 |
| EDND | ≤ 0.25 |
| HPGY | ≤ 0.25 |
| TAEM | 25.7 |
| MGWQ | 24.5 |
| MCCP | ≤ 0.25 |
| RAEP | ≤ 0.25 |
| PFAY | ≤ 0.25 |
| GSGL | 0.59 |
| FTEC | ≤ 0.25 |
| PGWT | ≤ 0.25 |
| CFSN | ≤ 0.25 |
| VTNG | ≤ 0.25 |
| NEIE | ≤ 0.25 |
| DGTN | ≤ 0.25 |
| NGAV | ≤ 0.25 |
| MNIN | ≤ 0.25 |
| NYMS | ≤ 0.25 |
| FAMK | ≤ 0.25 |
| PAPP | ≤ 0.25 |
| IAMF | ≤ 0.25 |
| VQMW | ≤ 0.25 |

| Variant | enrichment ratio |
| --- | --- |
| FWLG | 1.07 |
| TIHN | 1.85 |
| IWQT | ≤ 0.25 |
| MRIR | ≤ 0.25 |
| YTLW | ≤ 0.25 |
| PRSW | ≤ 0.25 |
| RRIQ | ≤ 0.25 |
| HAVR | ≤ 0.25 |
| RTGD | ≤ 0.25 |
| KVGQ | ≤ 0.25 |
| MFVS | ≤ 0.25 |
| PNKI | ≤ 0.25 |
| HKTS | ≤ 0.25 |
| GLGY | ≤ 0.25 |
| ITPI | ≤ 0.25 |
| MEMF | 0.449 |
| RDDG | ≤ 0.25 |
| IINM | ≤ 0.25 |
| MAGW | ≤ 0.25 |
| LFSR | ≤ 0.25 |
| IMVL | ≤ 0.25 |
| KVFC | ≤ 0.25 |
| IHYH | ≤ 0.25 |
| HLVW | ≤ 0.25 |

| Variant | enrichment ratio |
| --- | --- |
| KLIV | ≤ 0.25 |
| NCCC | ≤ 0.25 |
| VVWG | ≤ 0.25 |
| FMMI | ≤ 0.25 |
| APAG | ≤ 0.25 |
| NACV | ≤ 0.25 |
| NCRI | ≤ 0.25 |
| NAPM | ≤ 0.25 |
| APER | ≤ 0.25 |
| MWKF | ≤ 0.25 |
| PHHA | ≤ 0.25 |
| SNDR | ≤ 0.25 |
| NTTL | ≤ 0.25 |
| FCHD | ≤ 0.25 |
| RHHY | ≤ 0.25 |
| SGLF | 8.98 |
| REYR | ≤ 0.25 |
| IRVE | ≤ 0.25 |
| ANMR | 5.84 |
| TPRV | ≤ 0.25 |
| FGDC | ≤ 0.25 |
| KCAS | ≤ 0.25 |
| GIRS | ≤ 0.25 |
| TCNN | 5.79 |

| Variant | enrichment ratio |
| --- | --- |
| SPCP | ≤ 0.25 |
| NWSG | ≤ 0.25 |
| TSPY | ≤ 0.25 |
| ETHW | ≤ 0.25 |
| RKPE | ≤ 0.25 |
| WRVF | ≤ 0.25 |
| NEVV | ≤ 0.25 |
| KYQN | ≤ 0.25 |
| REGN | ≤ 0.25 |
| HQKW | ≤ 0.25 |
| QGSP | ≤ 0.25 |
| VAGI | ≤ 0.25 |
| KVQI | ≤ 0.25 |
| MGGM | 9.49 |
| SFEE | ≤ 0.25 |
| IIHA | ≤ 0.25 |
| LPCF | ≤ 0.25 |
| SMCC | 2.5 |
| QMPG | ≤ 0.25 |
| KKRC | ≤ 0.25 |
| TVFT | ≤ 0.25 |
| AWWN | ≤ 0.25 |
| FEKY | ≤ 0.25 |
| WKGD | ≤ 0.25 |

| Variant | enrichment ratio |
| --- | --- |
| FIRD | ≤ 0.25 |
| YNEG | ≤ 0.25 |
| LRMT | ≤ 0.25 |
| DTCH | ≤ 0.25 |
| DRRQ | ≤ 0.25 |
| IDCT | ≤ 0.25 |
| LQWE | ≤ 0.25 |
| QEYQ | 30.4 |
| NFWM | ≤ 0.25 |
| YGHW | ≤ 0.25 |
| NHWL | ≤ 0.25 |
| VTIH | ≤ 0.25 |
| ATSD | ≤ 0.25 |
| IMYH | ≤ 0.25 |
| EHRI | ≤ 0.25 |
| YLLY | ≤ 0.25 |
| TDMS | 2.96 |
| MEQR | ≤ 0.25 |
| NWDQ | ≤ 0.25 |
| NMWY | ≤ 0.25 |
| NLKM | ≤ 0.25 |
| TIQV | 7.38 |
| GSDS | ≤ 0.25 |
| SWSM | ≤ 0.25 |

| Variant | enrichment ratio |
| --- | --- |
| GRMM | ≤ 0.25 |
| FKQY | ≤ 0.25 |
| AVIL | 1.98 |
| FMIQ | ≤ 0.25 |
| AKIP | ≤ 0.25 |
| GFPT | ≤ 0.25 |
| VKVP | ≤ 0.25 |
| NDPW | ≤ 0.25 |
| MHRE | ≤ 0.25 |
| NGGL | ≤ 0.25 |
| RSKP | ≤ 0.25 |
| FIAD | ≤ 0.25 |
| FFLT | ≤ 0.25 |
| THWN | ≤ 0.25 |
| YNTW | ≤ 0.25 |
| GWQR | ≤ 0.25 |
| QTFL | 1.72 |
| VGDQ | ≤ 0.25 |
| TNWC | ≤ 0.25 |
| NSDM | ≤ 0.25 |
| ARYA | ≤ 0.25 |
| PVGN | ≤ 0.25 |
| IARG | ≤ 0.25 |
| QHWW | ≤ 0.25 |

| Variant | enrichment ratio |
| --- | --- |
| WNEF | ≤ 0.25 |
| WMWN | ≤ 0.25 |
| LAVR | ≤ 0.25 |
| RLRS | ≤ 0.25 |
| LDQH | ≤ 0.25 |
| CLPY | ≤ 0.25 |
| DFKI | ≤ 0.25 |
| AKCW | ≤ 0.25 |
| IQEF | ≤ 0.25 |
| NKMM | ≤ 0.25 |
| YLWC | ≤ 0.25 |
| TPNV | ≤ 0.25 |
| LVWG | ≤ 0.25 |
| SENQ | 6.11 |
| WALI | 5.29 |
| HIWW | ≤ 0.25 |
| RPPK | ≤ 0.25 |
| YQKR | ≤ 0.25 |
| YNNE | ≤ 0.25 |
| APSP | ≤ 0.25 |
| PCNV | ≤ 0.25 |
| LIPN | ≤ 0.25 |
| PQCH | ≤ 0.25 |
| RCDT | ≤ 0.25 |

| Variant | enrichment ratio |
| --- | --- |
| FLLK | ≤ 0.25 |
| GQQR | ≤ 0.25 |
| HHQL | ≤ 0.25 |
| NSTP | ≤ 0.25 |
| QKSP | ≤ 0.25 |
| PEVV | ≤ 0.25 |
| ANHK | ≤ 0.25 |
| FIHW | ≤ 0.25 |
| DMEV | 1.69 |
| ELCW | ≤ 0.25 |
| QCHP | ≤ 0.25 |
| FQFF | ≤ 0.25 |
| KVII | ≤ 0.25 |
| FDFQ | ≤ 0.25 |
| VLAP | ≤ 0.25 |
| KSAG | ≤ 0.25 |
| SYYA | ≤ 0.25 |
| YCQH | ≤ 0.25 |
| ISGF | ≤ 0.25 |
| VRCD | ≤ 0.25 |
| ANAQ | 2.2 |
| IDYW | ≤ 0.25 |
| WPKP | ≤ 0.25 |
| DDCV | ≤ 0.25 |

| Variant | enrichment ratio |
| --- | --- |
| RIIG | ≤ 0.25 |
| EYYR | ≤ 0.25 |
| WYQD | ≤ 0.25 |
| SHFA | ≤ 0.25 |
| MRFK | ≤ 0.25 |
| YSKY | ≤ 0.25 |
| YAAC | ≤ 0.25 |
| AILI | 1.77 |
| YFCS | ≤ 0.25 |
| QQWK | ≤ 0.25 |
| WCWI | ≤ 0.25 |
| PDNL | ≤ 0.25 |
| FEPH | ≤ 0.25 |
| WPSE | ≤ 0.25 |
| GWGA | ≤ 0.25 |
| SEVS | 20.4 |
| WLWA | ≤ 0.25 |
| GILY | 7.36 |
| KTGL | ≤ 0.25 |
| LEVC | ≤ 0.25 |
| KILS | ≤ 0.25 |
| KLLP | ≤ 0.25 |
| YMNS | ≤ 0.25 |
| KAPN | ≤ 0.25 |

| Variant | enrichment ratio |
| --- | --- |
| GAAL | ≤ 0.25 |
| DGLG | ≤ 0.25 |
| KGEI | ≤ 0.25 |
| SLVA | ≤ 0.25 |
| RFHR | ≤ 0.25 |
| KRFL | ≤ 0.25 |
| LNVL | ≤ 0.25 |
| PGRQ | ≤ 0.25 |
| WYMD | ≤ 0.25 |
| FQGA | ≤ 0.25 |
| TGKP | ≤ 0.25 |
| MMDR | ≤ 0.25 |
| TRWV | ≤ 0.25 |
| QSEF | ≤ 0.25 |
| MKGR | ≤ 0.25 |
| MKAQ | ≤ 0.25 |
| HPVT | ≤ 0.25 |
| KVFG | ≤ 0.25 |
| YIWG | ≤ 0.25 |
| WDVY | ≤ 0.25 |
| YFFG | ≤ 0.25 |
| YSNG | ≤ 0.25 |
| VAEE | ≤ 0.25 |
| EMWY | ≤ 0.25 |

| Variant | enrichment ratio |
| --- | --- |
| EAFA | ≤ 0.25 |
| QRFC | ≤ 0.25 |
| PLLT | ≤ 0.25 |
| ICRF | ≤ 0.25 |
| PQLG | ≤ 0.25 |
| ENNA | ≤ 0.25 |
| MQSM | 8.88 |
| SNAA | 4.44 |
| QKWF | 12.7 |
| KVTR | ≤ 0.25 |
| YWCD | ≤ 0.25 |
| DACF | ≤ 0.25 |
| HPRE | ≤ 0.25 |
| TILK | ≤ 0.25 |
| RHGA | ≤ 0.25 |
| FDHP | ≤ 0.25 |
| VRGT | ≤ 0.25 |
| LFTD | ≤ 0.25 |
| YKEM | ≤ 0.25 |
| ADDI | ≤ 0.25 |
| TNEI | 4.26 |
| TDDW | ≤ 0.25 |
| KCSM | ≤ 0.25 |
| THPQ | ≤ 0.25 |

| Variant | enrichment ratio |
| --- | --- |
| DCDA | ≤ 0.25 |
| GHAL | ≤ 0.25 |
| FYCR | ≤ 0.25 |
| MRWT | ≤ 0.25 |
| ARGM | ≤ 0.25 |
| MCDW | ≤ 0.25 |
| FFYC | ≤ 0.25 |
| YGTR | ≤ 0.25 |
| SMNL | 2.56 |
| RQHD | ≤ 0.25 |
| NKDL | ≤ 0.25 |
| ARSV | ≤ 0.25 |
| YPWM | ≤ 0.25 |
| HPPA | ≤ 0.25 |
| SWDQ | ≤ 0.25 |
| QQMA | ≤ 0.25 |
| PRIH | ≤ 0.25 |
| HTCS | ≤ 0.25 |
